{"source": "paper PMC4336329", "about": "(PLoS ONE, 2015)", "note": "The campaign covered roughly 310,000 compounds. About 14,000 (4.5%) showed an effect of 50% or more. The effect is printed as a negative number. Some of the results follow.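 Further: peak tail current of the secondary pulse compared with the same well before compound.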", "data": [{"biological_target": "human ether-à-go-go-related gene (hERG) potassium channel (human, UniProt Q12809)", "sequence (Q12809 whole entry, looked up)": "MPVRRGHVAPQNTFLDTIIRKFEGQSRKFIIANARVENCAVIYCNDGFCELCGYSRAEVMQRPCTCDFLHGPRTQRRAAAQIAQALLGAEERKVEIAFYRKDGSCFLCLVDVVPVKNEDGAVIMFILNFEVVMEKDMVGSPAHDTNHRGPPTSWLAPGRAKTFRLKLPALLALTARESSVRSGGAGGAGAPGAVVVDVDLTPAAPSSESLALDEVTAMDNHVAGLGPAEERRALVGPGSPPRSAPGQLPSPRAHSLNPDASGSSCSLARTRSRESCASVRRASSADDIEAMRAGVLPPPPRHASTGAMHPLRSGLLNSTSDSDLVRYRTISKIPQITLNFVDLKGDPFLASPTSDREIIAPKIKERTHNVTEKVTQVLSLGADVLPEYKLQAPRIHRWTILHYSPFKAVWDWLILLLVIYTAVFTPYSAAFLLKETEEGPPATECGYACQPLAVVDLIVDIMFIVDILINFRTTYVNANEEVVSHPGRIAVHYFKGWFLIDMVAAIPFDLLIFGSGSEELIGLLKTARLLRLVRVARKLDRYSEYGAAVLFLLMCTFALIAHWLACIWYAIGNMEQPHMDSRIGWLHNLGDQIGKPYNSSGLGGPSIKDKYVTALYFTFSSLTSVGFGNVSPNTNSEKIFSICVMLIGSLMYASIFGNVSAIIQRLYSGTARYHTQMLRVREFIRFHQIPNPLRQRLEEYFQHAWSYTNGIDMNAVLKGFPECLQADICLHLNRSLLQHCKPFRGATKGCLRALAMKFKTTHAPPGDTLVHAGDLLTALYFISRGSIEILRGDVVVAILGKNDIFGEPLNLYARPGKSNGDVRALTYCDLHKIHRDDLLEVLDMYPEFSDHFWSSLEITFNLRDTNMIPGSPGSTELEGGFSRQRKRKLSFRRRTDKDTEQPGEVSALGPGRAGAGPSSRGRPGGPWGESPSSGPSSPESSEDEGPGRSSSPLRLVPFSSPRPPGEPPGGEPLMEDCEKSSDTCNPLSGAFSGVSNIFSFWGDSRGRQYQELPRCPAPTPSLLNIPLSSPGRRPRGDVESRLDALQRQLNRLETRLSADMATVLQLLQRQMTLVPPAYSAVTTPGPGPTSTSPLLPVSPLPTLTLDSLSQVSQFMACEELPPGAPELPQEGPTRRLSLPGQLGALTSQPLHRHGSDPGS", "test": "primary screen, population patch clamp on CHO cells stably expressing hERG", "units": {"hERG current change (%, negative = inhibition) at 10uM": "%"}, "values": [{"smiles": "OC(c1cccs1)(c1cccs1)C1C[N+]2(CF)CCC1CC2.[Cl-]", "note": "(centres unmarked)", "hERG current change (%, negative = inhibition) at 10uM": 4.96}, {"smiles": "CCOC(=O)N1CCN(C(=O)CSCc2ccc(C)cc2)CC1", "hERG current change (%, negative = inhibition) at 10uM": -4.51}, {"smiles": "O=C1CC(N(CCc2ccccc2)C(=S)Nc2cc(Cl)ccc2Cl)C(=O)N1c1c(Cl)cccc1Cl", "note": "(centres unmarked)", "hERG current change (%, negative = inhibition) at 10uM": 8.12}, {"smiles": "O=C(NCCCN1CCCC1=O)c1cccc(S(=O)(=O)NCc2ccccc2)c1", "hERG current change (%, negative = inhibition) at 10uM": -5.36}, {"smiles": "Cn1cc(C(=O)N2CCN(c3ccccc3)CC2)c(=O)c2cc(S(=O)(=O)N3CCCC3)ccc21", "hERG current change (%, negative = inhibition) at 10uM": 9.41}, {"smiles": "COC(=O)CNC(=O)CSc1ccccn1", "hERG current change (%, negative = inhibition) at 10uM": -4.73}, {"smiles": "COc1ccc(C(=O)NCCN=C2NS(=O)(=O)c3ccccc32)cc1", "hERG current change (%, negative = inhibition) at 10uM": 13.5}, {"smiles": "Nc1nonc1-c1nc2ccccc2n1Cc1ccccc1", "hERG current change (%, negative = inhibition) at 10uM": -7.37}, {"smiles": "COc1cc(COCC(O)CN2CCN(Cc3ccccc3)CC2)cc(OC)c1OC.Cl", "note": "(centres unmarked)", "hERG current change (%, negative = inhibition) at 10uM": -39.1}, {"smiles": "C=CCn1c(CNC(=O)c2ccco2)nnc1SCC(=O)c1ccc(F)cc1", "hERG current change (%, negative = inhibition) at 10uM": -15}, {"smiles": "O=C(NCCO)C(=O)c1c(-c2ccc(Cl)cc2)cc2ccccn12", "hERG current change (%, negative = inhibition) at 10uM": 10.8}, {"smiles": "O=C(c1ccc(Cl)cc1)N1CCN(c2ccc([N+](=O)[O-])c(NCc3cccnc3)c2)CC1", "hERG current change (%, negative = inhibition) at 10uM": -50.1}, {"smiles": "O=C(O)CCS(=O)(=O)Cc1cccc(Cl)c1", "hERG current change (%, negative = inhibition) at 10uM": -4.26}, {"smiles": "Fc1ccccc1NC(=S)NCc1ccccc1", "hERG current change (%, negative = inhibition) at 10uM": 2.89}, {"smiles": "CS(=O)(=O)N(Cc1ccc(C(=O)NN=C2CCCC2)cc1)c1ccccc1", "hERG current change (%, negative = inhibition) at 10uM": 8.63}, {"smiles": "O=S(=O)(Cc1cc(Cl)nc(-c2ccncc2)n1)c1ccccc1", "hERG current change (%, negative = inhibition) at 10uM": -10.7}, {"smiles": "CC(=O)N1CN(Cc2ccccn2)Cc2c1sc1c2CCCC1", "hERG current change (%, negative = inhibition) at 10uM": -17.6}, {"smiles": "Cc1cccc(C(=O)Nc2nnc(-c3ccncc3)o2)c1", "hERG current change (%, negative = inhibition) at 10uM": -23.6}, {"smiles": "COc1cccc2c(Nc3ccccc3C)cc(C)nc12.Cl", "hERG current change (%, negative = inhibition) at 10uM": -44.5}, {"smiles": "Cc1cc(NS(=O)(=O)c2ccc(NC(=O)/C=C/c3ccccc3)cc2)no1", "hERG current change (%, negative = inhibition) at 10uM": 16.5}, {"smiles": "C/C(=N\\NC(=O)CC1(C)OCCO1)c1cccs1", "hERG current change (%, negative = inhibition) at 10uM": 14.5}, {"smiles": "CC1(Cc2ccc3c(c2)OCO3)NC(=O)NC1=O", "note": "(centres unmarked)", "hERG current change (%, negative = inhibition) at 10uM": 14.8}, {"smiles": "O=C(CN1C(=O)c2ccccc2C1=O)Nc1sc2c(c1C(=O)NCc1ccco1)CCCC2", "hERG current change (%, negative = inhibition) at 10uM": -4.71}, {"smiles": "CCOC(=O)c1cnc2c(C)c(Cl)ccc2c1N1CCN(CC)CC1.Cl", "hERG current change (%, negative = inhibition) at 10uM": -29.5}, {"smiles": "N#Cc1ccc(C(=O)N/N=C/c2cn(CC(=O)O)c3ccccc23)c(F)c1", "hERG current change (%, negative = inhibition) at 10uM": -1.39}, {"smiles": "Cc1cc(C(=O)CSc2nc(N)cc(N)n2)c(C)n1CCc1ccc(F)cc1", "hERG current change (%, negative = inhibition) at 10uM": -13.9}, {"smiles": "Cc1nc(Cl)c(C(=O)NC(=O)NCc2ccccc2)c(C)c1Cl", "hERG current change (%, negative = inhibition) at 10uM": -6.08}, {"smiles": "Cc1n(CC(=O)c2ccc(F)cc2)c2ccccc2[n+]1C.[Br-]", "hERG current change (%, negative = inhibition) at 10uM": 13.5}, {"smiles": "COc1cccc(C2CC(c3ccccc3Cl)n3ncnc3N2)c1", "note": "(centres unmarked)", "hERG current change (%, negative = inhibition) at 10uM": -14.2}, {"smiles": "Cc1sccc1C1C(C#N)=C(N)SC(N)=C1C#N", "hERG current change (%, negative = inhibition) at 10uM": 14.4}, {"smiles": "CCc1cc(OCCCCNCc2ccccc2)ccc1Cl.O=C(O)C(=O)O", "hERG current change (%, negative = inhibition) at 10uM": -25.6}, {"smiles": "COc1ccc(NC(=S)NCCc2ccccc2)c(OC)c1", "hERG current change (%, negative = inhibition) at 10uM": -0.888}, {"smiles": "Cc1cc(OC(C)C(=O)N(Cc2ccco2)C2CCS(=O)(=O)C2)cc(C)c1Cl", "note": "(centres unmarked)", "hERG current change (%, negative = inhibition) at 10uM": -1.99}, {"smiles": "CCN(CC)C(=O)c1ccc(NC(=O)CSc2nnnn2-c2cc(OC)ccc2OC)cc1", "hERG current change (%, negative = inhibition) at 10uM": 16.9}, {"smiles": "Cc1nnc2sc(SCC(=O)Nc3ccc(Cl)cc3)nn2c1=O", "hERG current change (%, negative = inhibition) at 10uM": 13.2}, {"smiles": "CCc1c(C(=O)N/N=C/c2cn[nH]c2-c2ccc(F)cc2)csc1C", "hERG current change (%, negative = inhibition) at 10uM": -18.5}, {"smiles": "Cc1ncsc1CCC(=O)N1CCCC(C(=O)c2cccc(Cl)c2)C1", "note": "(centres unmarked)", "hERG current change (%, negative = inhibition) at 10uM": -1.87}, {"smiles": "Cc1cccc(NC(=O)COC(=O)c2ccc([N+](=O)[O-])o2)c1C", "hERG current change (%, negative = inhibition) at 10uM": 8.7}, {"smiles": "O=C1C2C3C=CC(C3)C2C(=O)N1c1ccc(Cc2ccncc2)cc1", "note": "(centres unmarked)", "hERG current change (%, negative = inhibition) at 10uM": -0.768}, {"smiles": "O=[N+]([O-])c1cccnc1NCCNc1ncc(C(F)(F)F)cc1Cl", "hERG current change (%, negative = inhibition) at 10uM": 13.6}, {"smiles": "O=C(Nc1cccc(S(=O)(=O)Nc2ccc(Cl)cc2)c1)c1ccc(Cl)nc1", "hERG current change (%, negative = inhibition) at 10uM": 19.8}, {"smiles": "CCC(C)NC(=S)N(CCc1ccccc1)Cc1cc2cc(OC)c(OC)cc2[nH]c1=O", "note": "(centres unmarked)", "hERG current change (%, negative = inhibition) at 10uM": -32.4}, {"smiles": "Cc1sc2nc(CC(=O)N3CCCC3)[nH]c(=O)c2c1C", "hERG current change (%, negative = inhibition) at 10uM": 3.32}, {"smiles": "O=C(N/C=N/O)C(c1ccccc1)c1ncc(C(F)(F)F)cc1Cl", "note": "(centres unmarked)", "hERG current change (%, negative = inhibition) at 10uM": 3.35}, {"smiles": "O=C1NC(=Nc2ccc(F)cc2)CS1", "hERG current change (%, negative = inhibition) at 10uM": 24.4}, {"smiles": "Cc1cc(/C=N/NC(N)=O)c(C)n1-c1ccc(F)cc1", "hERG current change (%, negative = inhibition) at 10uM": -2.06}, {"smiles": "CCCSc1nc2c(cnn2-c2ccc(Cl)cc2)c(=O)[nH]1", "hERG current change (%, negative = inhibition) at 10uM": 14.8}, {"smiles": "CCN1C(=O)c2ccccc2S(=O)c2ccc(C(=O)N3CCCC3)cc21", "note": "(centres unmarked)", "hERG current change (%, negative = inhibition) at 10uM": -2}, {"smiles": "CCCn1c(N)c(N(CCOC)C(=O)/C=C/c2cccc(Cl)c2)c(=O)[nH]c1=O", "hERG current change (%, negative = inhibition) at 10uM": 28}, {"smiles": "COc1ccc(N2CC(C(=O)N/N=C/c3cc([N+](=O)[O-])ccc3O)CC2=O)cc1", "note": "(centres unmarked)", "hERG current change (%, negative = inhibition) at 10uM": -8.45}, {"smiles": "O=C(NCCC1CCCCN1S(=O)(=O)c1ccc(F)cc1)C(=O)NC1CC1", "note": "(centres unmarked)", "hERG current change (%, negative = inhibition) at 10uM": -13.9}, {"smiles": "COc1ccc(CN2CCNC(=O)C2CC(=O)NC2CCCCCC2)cc1C", "note": "(centres unmarked)", "hERG current change (%, negative = inhibition) at 10uM": -5.91}, {"smiles": "COc1cc(O)c(C(CCN2CCCC2)c2ccc3c(c2)OCO3)c(OC)c1", "note": "(centres unmarked)", "hERG current change (%, negative = inhibition) at 10uM": -72.5}, {"smiles": "Cc1cccc(/C=N/NC(=O)NC2CCCCC2)c1", "hERG current change (%, negative = inhibition) at 10uM": 14}, {"smiles": "CC1=NN(C(C#N)c2ccccc2)C(c2ccccc2)C1", "note": "(centres unmarked)", "hERG current change (%, negative = inhibition) at 10uM": 3.71}, {"smiles": "O=C(CN(c1ccccc1)S(=O)(=O)c1ccc(F)cc1)NCc1cccs1", "hERG current change (%, negative = inhibition) at 10uM": 7.09}]}]}
